Laboratory results: article PMC6451091
Some of the results follow. The protein was read in a cell extract, so binding may be indirect.

System: PU.1 (endogenous, THP-1 nuclear extract) + IRF8 (endogenous, THP-1 nuclear extract)
Assay: nuclear extract protein-binding microarray (nextPBM)
Conditions: 20 mM HEPES pH 7.9, 100 mM NaCl, 1 mM DTT, 0.2 mg/mL BSA, 0.02% Triton X-100, 2% milk, 0.4 mg/mL salmon testes DNA; 1 h; temperature not stated; high values mean tight binding; double strand, one strand shown; sequences stand for … in GCCTAGCAC…GTGCTAGGTCTTGATTCGCTTGACGCTGCTG

Row | Sequence | binding signal
1 | AAGAGAAGAAACAGCAGAAT | -0.186 z-score
2 | AGGAAGGAAGCCTGCAGACA | -1.16 z-score
3 | TTCTTTCGCAGGTCAGGGCA | 0.891 z-score
4 | CAACCAACTCTACCTGAGAA | 0.0452 z-score
5 | TAGTTCCCTCCCTGTCAAAG | 0.0463 z-score
6 | GAGAGTAGCCTAGTCCCTAG | -0.559 z-score
7 | AAAAGGACTGCGTGAAAGTA | 0.0367 z-score
